Our source for the z-score values is PubChem BioAssay AID488969 (Vanderbilt High Throughput Screening Facility, 2010).

The full ranking holds about 110,000 compounds; the median of “z-score” is about -0.1, and the highest 2% start at about 2. The list shows a part of the results.

The test deals with Metabotropic glutamate receptor 8 (Rattus norvegicus) (UniProt P70579). The test can be described thus: mGluR8 Gi/Go-coupled signaling modulation – cell-based, rat, thallium flux, HTS, primary screen (AID 488969). The following applies: HEK293 rat mGluR8, GIRK (G protein-gated inwardly rectifying potassium channel) thallium flux, FluoZin2; at 10 µM; stronger effect = higher value; submaximal glutamate (EC20) added with thallium.
Sequence of UniProt P70579 (P70579 whole entry, looked up): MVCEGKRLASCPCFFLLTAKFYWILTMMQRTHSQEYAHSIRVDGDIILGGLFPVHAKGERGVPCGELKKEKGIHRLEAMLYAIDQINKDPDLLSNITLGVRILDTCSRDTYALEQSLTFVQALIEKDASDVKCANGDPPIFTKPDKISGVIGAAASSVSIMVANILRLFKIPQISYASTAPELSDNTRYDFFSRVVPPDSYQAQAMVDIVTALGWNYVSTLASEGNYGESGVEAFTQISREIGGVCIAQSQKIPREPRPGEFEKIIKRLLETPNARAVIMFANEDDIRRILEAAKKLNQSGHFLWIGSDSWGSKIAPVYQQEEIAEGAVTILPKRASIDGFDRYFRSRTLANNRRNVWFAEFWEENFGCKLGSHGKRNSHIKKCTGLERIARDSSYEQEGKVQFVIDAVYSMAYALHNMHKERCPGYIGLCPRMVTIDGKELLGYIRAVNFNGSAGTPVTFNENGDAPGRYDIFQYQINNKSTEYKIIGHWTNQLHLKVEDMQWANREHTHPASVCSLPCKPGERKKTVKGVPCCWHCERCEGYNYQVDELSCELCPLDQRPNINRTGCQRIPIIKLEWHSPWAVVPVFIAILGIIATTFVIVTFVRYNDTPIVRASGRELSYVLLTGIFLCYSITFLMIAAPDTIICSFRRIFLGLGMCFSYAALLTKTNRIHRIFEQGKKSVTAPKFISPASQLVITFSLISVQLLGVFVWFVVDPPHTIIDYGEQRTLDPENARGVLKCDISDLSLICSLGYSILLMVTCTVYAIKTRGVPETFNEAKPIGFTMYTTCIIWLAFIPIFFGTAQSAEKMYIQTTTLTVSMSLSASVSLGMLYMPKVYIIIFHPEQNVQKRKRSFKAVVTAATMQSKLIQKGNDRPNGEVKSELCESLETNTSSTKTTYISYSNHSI
`CCCOC(=O)c1ccc(Cl)c(NC(=O)c2ccc(-c3ccccc3)cc2)c1` displayed a z-score of -0.235. `O=C(CCc1ccccc1)Nc1nc2n(n1)C(c1ccccc1)CC(=O)N2` (stereo unspecified): the z-score was -0.144. The value for `C=CCOc1cccc(C2/C(=C(\O)c3ccc(F)cc3)C(=O)C(=O)N2CCN(C)C)c1` (stereo unspecified) was -0.198. With `Cc1ccc(O)c(Sc2cc(C)ccc2O)c1` the figure was 0.148; with `CCn1c(SCc2ccccc2Cl)nc2nc3c(cc2c1=O)CCCC3`, -0.0701.

The compound `O=C(c1ccco1)N1CCN(c2cccc(Cl)c2)CC1` gave a z-score of -0.585. As to `O=C(c1c(Cl)nc2sccn12)N1CCN(c2cccc(Cl)c2)CC1`, the z-score was 0.238.

Consider `Cn1nnnc1SCC(=O)Nc1ccccc1-c1ccccc1`, for which the z-score was found to be 0.101. For `COc1ccccc1N1C(=O)C2C3C=CC(C3)C2C1=O` (stereo unspecified), the z-score was found to be 0.175. For `O=C(Nc1cccnc1)/C(N=Nc1cccnc1)=C(\O)c1ccccc1`, the z-score is -0.3. With `O=C(N/N=C/c1ccc2c(c1)OCO2)c1sc2cc(Cl)ccc2c1Cl` the figure was -0.24. The value for `CC(C)(C)C(=O)COC(=O)c1cc2ccccc2cc1O` was 0.0732; that for `CCN(CC)S(=O)(=O)c1ccc(/C=C/C(=O)OCC(=O)Nc2cccc3ccccc23)cc1` was 0.142. With `Cc1[nH]nc2c1C(c1ccc(F)cc1)C(C#N)=C(N)O2` (stereo unspecified) the figure was -0.493; with `CON(C)c1nc(Oc2ccc(=O)[nH]n2)nc(N(C)C)n1`, 0.0683; with `O=S(=O)(c1ccccc1)N1CCN(c2nc3ccccc3s2)CC1`, -0.803. `Cn1c(NC(=O)c2ccc(Br)o2)cc(=O)n(C)c1=O` yielded a z-score of 0.922. Take `Cc1sc2ncnc(Sc3nnnn3-c3ccc(Cl)cc3)c2c1C`: the z-score was -0.841. In the case of `COc1cccc(CC(NC(C)=O)C(=O)NC2CCN(c3c(Cc4ccccc4)c(C)nc4ncnn34)CC2)c1OC` (stereo unspecified), the z-score is -0.954. Turning to `COC(=O)c1c(NC(=S)Nc2cc(OC)c(Cl)cc2OC)sc2c1CCCCC2`, the z-score is 1.46.

`O=C(c1cccc(NS(=O)(=O)c2cccc(F)c2)c1)N1CCN(c2ccccc2)CC1`: the z-score is -0.412. Consider `CC(c1ccccc1C(O)c1ccccc1)N(C)C` (stereo unspecified), for which the z-score worked out at 0.034. Regarding `CCOC(=O)c1c(C)[nH]c(C)c1C(=O)CSc1nc2ccccc2n1CCC#N`, the z-score was -0.206. Compound `O=C(NCCOc1ccccc1F)c1ccccc1SCc1ccc(F)cc1` gave a z-score of -0.926. Consider `CC1CCN(S(=O)(=O)c2csc(C(=O)Nc3ccccc3)c2)CC1`, for which the z-score was -0.0213.

Turning to `CCCc1cc(=O)[nH]c(Nc2cc(OC)ccc2OC)n1`, the z-score worked out at 0.139. `COc1ccc(OCCC(=O)NCc2ccccc2)cc1`: the z-score stood at 0.0188. The value for `CCn1c(NCc2ccccn2)nc2ccccc21` was -0.447; that for `CCSc1nnc(NC(=O)CSc2nccn2-c2cccc(C)c2)s1` was 1.34; that for `CCc1cc(C)cc(OCCNC(=O)c2ncn[nH]2)c1` was 1.38.

Consider `CC(=O)Oc1ccc(-c2ccc(C(=O)O)cc2)cc1`, for which the z-score was -0.0897.
